# Experimental data as given in PMC4049591.
# Chains of the proteins cited; added tags and fusions are not shown. Residues count along the entry.
# UniProt P30101, residues 25-505: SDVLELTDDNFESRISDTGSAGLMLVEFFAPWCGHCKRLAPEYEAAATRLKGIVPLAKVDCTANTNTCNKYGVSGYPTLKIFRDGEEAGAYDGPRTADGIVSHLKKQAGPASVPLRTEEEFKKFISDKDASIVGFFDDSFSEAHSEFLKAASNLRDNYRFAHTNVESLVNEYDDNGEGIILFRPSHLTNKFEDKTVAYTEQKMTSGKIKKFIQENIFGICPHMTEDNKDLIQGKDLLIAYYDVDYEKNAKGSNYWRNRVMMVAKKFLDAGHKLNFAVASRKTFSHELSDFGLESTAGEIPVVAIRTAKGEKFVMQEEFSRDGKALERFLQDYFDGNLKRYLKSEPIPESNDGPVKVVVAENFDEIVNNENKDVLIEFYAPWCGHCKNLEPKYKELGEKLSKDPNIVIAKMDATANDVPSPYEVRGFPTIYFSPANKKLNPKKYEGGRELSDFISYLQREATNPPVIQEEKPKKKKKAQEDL
# These are yes or no findings as the source states them, for the method shown. Binding seen in cells or lysates may run through a third protein. Some results given as binding are weak or reduced against the parent protein; the word gives no strength. For some assays here: Tags and fused reporters may be left off the sequences shown.
# T1: Myc-tagged wild type EDEM2 (human) (UniProt Q9BV94)
# T1 sequence: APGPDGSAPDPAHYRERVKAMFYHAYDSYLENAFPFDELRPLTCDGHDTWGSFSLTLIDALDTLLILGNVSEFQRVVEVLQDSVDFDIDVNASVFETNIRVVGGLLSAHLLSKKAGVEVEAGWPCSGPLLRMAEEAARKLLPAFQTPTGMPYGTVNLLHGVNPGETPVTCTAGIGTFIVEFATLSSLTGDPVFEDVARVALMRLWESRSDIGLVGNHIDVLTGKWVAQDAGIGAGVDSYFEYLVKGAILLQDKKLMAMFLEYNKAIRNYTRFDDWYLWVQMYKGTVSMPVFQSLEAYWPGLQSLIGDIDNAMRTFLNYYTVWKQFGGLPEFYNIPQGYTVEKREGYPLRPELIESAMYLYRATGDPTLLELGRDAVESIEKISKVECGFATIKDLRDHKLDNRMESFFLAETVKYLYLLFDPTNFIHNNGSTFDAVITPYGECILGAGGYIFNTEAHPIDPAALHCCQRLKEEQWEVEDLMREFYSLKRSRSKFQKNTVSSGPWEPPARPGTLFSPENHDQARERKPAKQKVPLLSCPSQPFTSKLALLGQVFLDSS
# T2: Myc-tagged wild type EDEM1 (human) (UniProt Q92611)
# T2 sequence: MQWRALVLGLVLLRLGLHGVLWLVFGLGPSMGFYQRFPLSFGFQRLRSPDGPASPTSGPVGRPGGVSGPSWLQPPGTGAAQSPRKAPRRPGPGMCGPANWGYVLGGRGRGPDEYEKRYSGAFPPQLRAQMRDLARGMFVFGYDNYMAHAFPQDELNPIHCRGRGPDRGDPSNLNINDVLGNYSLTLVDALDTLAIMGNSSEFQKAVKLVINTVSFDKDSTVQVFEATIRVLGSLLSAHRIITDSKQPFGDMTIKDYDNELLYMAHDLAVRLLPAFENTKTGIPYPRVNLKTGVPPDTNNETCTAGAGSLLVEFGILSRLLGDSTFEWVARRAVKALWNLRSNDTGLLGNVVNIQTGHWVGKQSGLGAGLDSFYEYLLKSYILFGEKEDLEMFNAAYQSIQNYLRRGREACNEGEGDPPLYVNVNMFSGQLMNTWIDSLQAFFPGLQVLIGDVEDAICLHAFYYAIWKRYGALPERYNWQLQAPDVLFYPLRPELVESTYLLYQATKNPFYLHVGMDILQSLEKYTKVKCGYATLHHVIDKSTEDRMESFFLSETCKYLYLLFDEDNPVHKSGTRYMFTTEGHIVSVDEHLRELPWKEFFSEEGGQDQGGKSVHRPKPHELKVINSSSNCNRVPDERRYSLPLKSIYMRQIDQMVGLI
# T3: Myc-tagged wild type EDEM3 (human) (UniProt Q9BZQ6)
# T3 sequence: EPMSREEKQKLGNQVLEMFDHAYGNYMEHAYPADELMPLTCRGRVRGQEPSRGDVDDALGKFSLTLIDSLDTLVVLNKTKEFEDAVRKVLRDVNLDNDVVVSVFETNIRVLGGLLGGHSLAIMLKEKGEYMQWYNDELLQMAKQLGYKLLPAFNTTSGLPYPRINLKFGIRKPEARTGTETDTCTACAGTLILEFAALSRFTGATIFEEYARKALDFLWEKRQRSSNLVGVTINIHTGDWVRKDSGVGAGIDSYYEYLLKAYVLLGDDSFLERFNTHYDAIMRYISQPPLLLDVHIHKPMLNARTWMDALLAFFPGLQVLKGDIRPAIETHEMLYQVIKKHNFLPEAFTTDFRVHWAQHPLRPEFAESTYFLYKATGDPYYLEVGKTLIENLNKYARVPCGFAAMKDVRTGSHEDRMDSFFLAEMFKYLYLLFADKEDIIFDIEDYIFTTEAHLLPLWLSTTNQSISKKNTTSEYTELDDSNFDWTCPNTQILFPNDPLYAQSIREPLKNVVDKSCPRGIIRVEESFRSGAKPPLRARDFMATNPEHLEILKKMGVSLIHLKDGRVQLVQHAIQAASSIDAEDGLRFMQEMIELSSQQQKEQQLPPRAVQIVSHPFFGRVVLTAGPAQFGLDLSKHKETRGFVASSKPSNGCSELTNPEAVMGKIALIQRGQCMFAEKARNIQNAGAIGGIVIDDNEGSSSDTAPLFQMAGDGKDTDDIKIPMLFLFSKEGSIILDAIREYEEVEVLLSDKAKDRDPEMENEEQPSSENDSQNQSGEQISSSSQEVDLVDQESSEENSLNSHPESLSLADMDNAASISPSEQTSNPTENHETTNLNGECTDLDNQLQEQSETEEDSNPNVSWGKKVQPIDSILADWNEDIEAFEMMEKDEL
# B1: Wild type OS-9.2 (protein, UniProt Q13438-2 26-612)
# chain: GGVGSLNLEELSEMRYGIEILPLPVMGGQSQSSDVVIVSSKYKQRYECRLPAGAIHFQREREEETPAYQGPGIPELLSPMRDAPCLLKTKDWWTYEFCYGRHIQQYHMEDSEIKGEVLYLGYYQSAFDWDDETAKASKQHRLKRYHSQTYGNGSKCDLNGRPREAEVRFLCDEGAGISGDYIDRVDEPLSCSYVLTIRTPRLCPHPLLRPPPSAAPQAILCHPSLQPEEYMAYVQRQADSKQYGDKIIEELQDLGPQVWSETKSGVAPQKMAGASPTKDDSKDSDFWKMLNEPEDQAPGGEEVPAEEQDPSPEAADSASGAPNDFQNNVQVKVIRSPADLIRFIEELKGGTKKGKPNIGQEQPVDDAAEVPQREPEKERGDPERQREMEEEEDEDEDEDEDEDERQLLGEFEKELEGILLPSDRDRLRSEVKAGMERELENIIQETEKELDPDGLKKESERDRAMLALTSTLNKLIKRLEEKQSPELVKKHKKKRVVPKKPPPSPQPTGKIEIKIVRPWAEGTEEGARWLTDEDTRNLKEIFFNILVPGAEEAQKERQRQKELESNYRRVWGSPGGEGTGDLDEFDF
# Experiments:
# [1] = biological target: T1, Myc-tagged wild type EDEM2 (human); assay: co-IP; 293T cells transfected with Myc-tagged EDEMs (10% of the DNA normally used); lysed in buffer with 1% Triton; immunoprecipitated with Myc antibodies; blotted for endogenous SEL1L, HRD1, Bip, calnexin and ERp57
# [2] = biological target: T2, Myc-tagged wild type EDEM1 (human); assay: as above
# [3] = biological target: T3, Myc-tagged wild type EDEM3 (human); assay: as above
# [4] = biological target: Non-glycosylated human sonic hedgehog mutant N278A with HA tag (N278A-HA) (human) (UniProt Q15465); assay: co-IP; 293T cells stably expressing SHH-HA or N278A-HA, untreated or treated with castanospermine (CST, 0.2 mg/ml, 90 min); lysed in buffer with 1% digitonin; immunoprecipitated with HA antibodies; blotted for endogenous calnexin, calreticulin and ERp57
# [5] = biological target: Full length human sonic hedgehog with HA tag (SHH-HA), glycosylated (human) (UniProt Q15465); assay: as above
# [6] = biological target: Non-glycosylated human sonic hedgehog mutant N278A with HA tag (N278A-HA) (human) (UniProt Q15465); assay: co-IP; cells co-transfected with SHH-HA or N278A-HA and vector, wild type OS-9.2 or R188A-OS-9; lysed in buffer with 1% Triton; immunoprecipitated with HA antibodies; blotted with OS-9 antibodies
Molecule,binding [1],binding [2],binding [3],binding [4],binding [5],binding [6]
ERp57 (from UniProt P30101 25-505),no binding,no binding,no binding,no binding,no binding,–
Calreticulin (from UniProt P27797 18-417),–,–,–,no binding,no binding,–
B1,–,–,–,–,–,binds
